Test results reported in ChEMBL document CHEMBL4888484, “Replenishing the malaria drug discovery pipeline: Screening and hit evaluation of the MMV Hit Generation Library 1 (HGL1) against asexual blood stage Plasmodium falciparum ,using a nano luciferase reporter read-out” (2022).
The campaign covered roughly 150,000 compounds. About 540 (0.36%) showed an effect of 50% or more. Some of the results follow.

Tested on: Plasmodium falciparum
Experiment: Primary screen in NF54 nanoGlo assay, in single point, at 2uM, 72h; a lower Z score goes with more inhibition
Format: functional, Erythrocyte
Conditions: timepoint 72 hour

| Structure (SMILES) | % Inhibition | Z score |
| --- | --- | --- |
| CCCc1nc(C)c(CNC(=O)c2cnc(C3CC3)nc2O)s1 | 2% | -0.38 |
| CC(=O)Nc1cc(C)nn1-c1ccc(NC(=O)Cc2coc3cc(C)c(C(C)C)cc23)cc1 | 7% | -0.91 |
| Oc1cc(CNCc2nnc3n2CCCC3)nc2c(F)cccc12 | -8% | 1.06 |
| O=C([C@@H]1COc2ccccc2O1)N1CCN(C(c2ccccc2)c2ccccc2)CC1 | -4% | 0.89 |
| Cc1cc2ccccc2nc1NCCCCN1CCN(CCO)CC1 | 3% | -0.31 |
| O=C(CN1CCCN(c2cnc3ccccc3n2)CC1)N1CCCC1 | -10% | 1.53 |
| c1ccc2c(c1)CC[C@@H]2n1ccnc1-c1ccncc1 | 11% | -1.44 |
| COc1cc(Br)ccc1CN[C@H](C(N)=O)C(C)(C)C | -14% | 1.5 |
| C#CC[C@H](OC(=O)c1ccc(NC(C)=O)cc1)C1CC1 | -3% | 0.41 |
| O=C1NC(c2ccc(NC(=O)c3cccc4ccccc34)cc2)(c2ccc(NC(=O)c3cccc4ccccc34)cc2)c2ccccc21 | 23% | -3.32 |
| CCOc1ccc(C(=O)N/C(=N/c2cc(C)cc(C)c2)N2CCN(Cc3ccccc3F)CC2)cc1 | -3% | 0.49 |
| Cc1nnc(NC(=O)CCc2cccnc2)s1 | -3% | 0.45 |
| Cc1ccnn1CC(=O)N1CC(=O)N(c2cccc(Cl)c2)C[C@@H]1C | -1% | 0.08 |
| CCc1nnc(-c2cccc(-n3cnnc3)c2)[nH]1 | -22% | 2.84 |
| NC(=O)C1(NC(=O)Nc2ccccc2-c2nnco2)CCCC1 | 4% | -0.7 |
| COc1ccc(S(=O)(=O)Nc2nnc(CC3CCCC3)o2)cn1 | -4% | 0.69 |
| COc1ccc(Oc2c(CN(CC3CC3)C(=O)C3CCC3)c(-c3ccccc3)nn2C)cc1 | 6% | -0.76 |
| CC(C)CN1C(=O)C2(CCCC2)N[C@@H]1c1cscn1 | -13% | 1.35 |
| CC(C)(C)n1nnc(CNc2cc(Cl)cc(F)c2C(N)=O)n1 | -4% | 0.67 |
| O=C(Cn1cccn1)NC[C@H]1CCCN(c2ccncc2)C1 | 0% | 0 |
| OC1CCCC1NCc1ccc(Br)o1 (stereo unspecified) | -8% | 1.2 |

| Structure (SMILES) | % Inhibition | Z score |
| --- | --- | --- |
| CC(=O)Nc1ccc(-c2c(-c3ccccc3)ncn2CCc2c[nH]cn2)cc1 | -2% | 0.33 |
| O=C(c1cccc(-c2cnc(=O)[nH]c2)c1)N1CCCN2CCC[C@H]2C1 | -19% | 1.87 |
| CCn1c(-c2ccc(-n3cnnn3)cc2)nnc1N1CCN(C(=O)OC(C)(C)C)[C@@H](C)C1 | -7% | 0.74 |
| CCN(CC)C(=O)CC[C@@H]1CNC(=O)[C@@H]2C[C@H](NCc3ccc(F)cc3)CN12 | 33% | -3.72 |
| CCOc1ccc(-c2cc(NC(=O)c3cc(-c4cccnc4)nc4ccccc34)on2)cc1OCC | 44% | -9.02 |
| O=C(O)C1CC=CCC1C(=O)NC1CCCC1 (stereo unspecified) | -12% | 1.48 |
| CCN(CCNC(=O)CCN1N=C(c2ccccc2)CCC1=O)c1ccccc1 | -5% | 0.74 |
| CC1(C)CN(C(=O)c2cc(Cc3ccccc3)n[nH]2)CCN1 | 11% | -1.36 |
| COC(=O)C1CCN(Cc2ccc3c(c2)CN(C(=O)c2cnn(Cc4ccccc4)c2)CCO3)CC1 | 2% | -0.42 |
| Cc1nc(CNC(=O)[C@@H]2CCCO2)cs1 | -1% | 0.15 |
| Cc1ccc(-n2nc(C(=O)NCC3CC3)c(=O)n(Cc3ccccc3)c2=O)cc1F | -17% | 1.47 |
| CC1=NS(=O)(=O)N(C)C=C1C(=O)NC1CCCCC1 | -17% | 3.14 |
| CC(C)Cn1cc(C(F)F)c(C(=O)NC2(C(=O)O)CCCC2)n1 | -8% | 0.68 |
| CCc1nnc2c(=O)n(CC(=O)Nc3ccccc3C)c3ccccc3n12 | 0% | 0 |
| Cc1nc(N(C)C)nc(NCCc2nc3ccccc3c(=O)[nH]2)c1C | 3% | -0.54 |
| COC(=O)c1ccccc1N(C)C(=O)c1ccc(Cl)c(S(=O)(=O)N2CCCCCC2)c1 | 30% | -3.42 |
| Cc1onc(C(=O)N2CCC3(CC2)CC[C@]3(C)O)c1COc1ccccc1 | -15% | 1.89 |
| CCN1CC[C@H](CNS(=O)(=O)c2ccc3[nH]cnc3c2)C1 | -9% | 1.22 |
| COCC(O)CN1CCCC(C(C)C)CC1 (stereo unspecified) | -5% | 0.7 |
| CCc1cc(NC(=O)C[C@H]2CCCS(=O)(=O)C2)n(C)n1 | -11% | 1.91 |
| CCc1nn(C)cc1NC(=O)N[C@H](CO)C(C)(C)C | -7% | 1.35 |

| Structure (SMILES) | % Inhibition | Z score |
| --- | --- | --- |
| O=C(Cc1noc2ccccc12)Nc1nc2ccccc2[nH]1 | -16% | 2.14 |
| CCCC(C)C1CCCN1C(=O)C(=O)Nc1cnc(CC)nc1 (stereo unspecified) | -8% | 0.88 |
| CO[C@@H](CNC(=O)c1ccc(C(C)C)nc1)C1CC1 | -3% | 0.61 |
| O=C(Nc1nnc([C@H]2CC(=O)N(c3ccc(OC(F)(F)F)cc3)C2)o1)c1cccc(F)c1 | -4% | 0.6 |
| C[C@H]1Cc2cc(CN3CCC(C(=O)O)(n4cccn4)CC3)ccc2O1 | 4% | -0.76 |
| CCN1CCN(C(=O)CCc2nnc(CCc3ccc(OC)cc3)o2)[C@@H](C)C1=O | -9% | 1.46 |
| CC(C)=CC1C(C(=O)N(C)CC2COc3ccccc3O2)C1(C)C (stereo unspecified) | -4% | 0.45 |
| COc1cc(C(=O)NCCc2ccc(Cl)cc2)ccc1OCC(=O)N1CCOCC1 | -15% | 1.83 |
| O=C(NCc1cc2n(n1)CCCO2)[C@H]1CCc2[nH]nc(C(F)(F)F)c2C1 | 1% | -0.22 |
| COc1ccc(CN(C)C(=O)NC2CCCCCC2)cc1O | -13% | 1.31 |
| FC(F)(F)c1ccc2c(c1)nc1n2CCCC1 | -4% | 0.58 |
| Cn1c(C(F)(F)F)nn(C2CCN(C(=O)c3ccncc3F)CC2)c1=O | -14% | 1.55 |
| O=C(NC1CCCCCC1)[C@H]1CC(=O)N(c2cccc(-c3noc(-c4cccs4)n3)c2)C1 | -1% | 0.17 |
| O=C(NCc1ccccn1)[C@H]1CCCN(c2nnc3ccc(C(F)(F)F)cn23)C1 | -4% | 0.66 |
| COc1cncc(S(=O)(=O)N(c2nc3ccccc3o2)C2CC2)c1 | -3% | 0.53 |
| COc1ccc([C@@]2(CC(=O)NCc3nc4cc(F)ccc4[nH]3)CC(=O)N(C3CCCC3)C2=O)cc1 | -8% | 1.52 |
| CCc1ccc(NC(=O)Cn2nc3c(N4CCN(c5ccc(C)cc5)CC4)nccn3c2=O)cc1 | 1% | -0.12 |
| CCOc1ccc2c(c1)NC(=O)C[C@H]2c1ccc(OC)nc1 | -6% | 1.03 |
| NC(=O)CNC(=O)c1coc(NC(=O)c2ccccc2)n1 | -8% | 1.25 |
| Clc1cc(Cl)cc(-c2ncccn2)c1 | 1% | -0.2 |
| Cc1ccc2c(CCC(=O)NC[C@H]3CCC[C@@H]3O)c[nH]c2c1 | -21% | 3.62 |

| Structure (SMILES) | % Inhibition | Z score |
| --- | --- | --- |
| O=C(Nc1cnccn1)c1ccncc1 | -11% | 1.22 |
| CN(C(=O)CC[C@H]1CCCOC1)c1nc2ccccc2n1C | -10% | 1.23 |
| Cc1c(-c2ccc(F)cc2)[nH]c2ccc(CNc3nccc(N(C)C)n3)cc12 | 29% | -4.59 |
| CN(C(=O)[C@H]1CCCN(C2CCN(Cc3ccncc3)CC2)C1)C1CCCCC1 | -4% | 0.54 |
| CCCCNC(=O)N1CC(C(=O)NCc2cccnc2)CCC1c1ccccc1 (stereo unspecified) | 1% | -0.18 |
| Cc1cnc(C(=O)N[C@H]2CCC(=O)N(C)C2)cn1 | -10% | 1.6 |
| O=C(NC[C@](O)(c1ccoc1)c1ccco1)c1ccco1 | -5% | 1.01 |
| O=C(CCCC(=O)N1CC[C@@](O)(C(F)F)C1)NCc1ccccc1 | -12% | 1.59 |
| O=C(O)[C@H]1CC[C@@H]1C(=O)Nc1scnc1-c1ccccc1 | -16% | 2.59 |
| O=C(Cc1ccc(Cl)s1)N1CCC[C@H]1Cn1cc(C2CC2)nn1 | -11% | 0.92 |
| CCc1ccc(CN2CCC3(CC2)[C@H](O)C[C@@H]3O)o1 | -1% | 0.27 |
| O=C(O)c1csc([C@@H]2CCCN2c2ncc(C(F)(F)F)s2)n1 | -10% | 1.39 |
| COc1ccc(C)cc1S(=O)(=O)NC1CC(=O)N(C2CC2C)C1 (stereo unspecified) | -1% | 0.12 |
| CC(=O)Nc1ccc(N)cc1C(F)(F)F | -15% | 1.97 |
| CNC(=O)c1nc(-c2ccccc2)n2c1CCN(C(=O)c1ccc(OC)nc1)CC2 | -16% | 1.89 |
| O=C(NCc1cccnc1-n1cnc2ccccc21)c1ccoc1 | -7% | 0.97 |
| Cc1ccc(N2CCCN(Cc3ccccc3C)C2=O)c(NC(=O)Cc2ccc(F)cc2)c1 | 9% | -1.09 |
| CN1C(=O)C[C@H](N2CCN(c3ncccn3)CC2)C1=O | 0% | -0.03 |
| C[C@@H]1NCCN=C1NC(C)(C)CC(C)(C)C | 5% | -0.67 |
| C[C@@]1(C(=O)N2CCN(c3ccccc3F)CC2)Oc2ccccc2NC1=O | 1% | -0.16 |
